The other results are listed elsewhere or left out. At the low end of the ranking the order means little.
The sequences below were run against SIX1 homeodomain (reference allele) (UniProt Q15475) (assay: universal protein binding microarray). Details: Universal all-10-mer PBM (8x60K, AMADID 030236), 300 nM GST-tagged protein, Alexa Fluor 488 anti-GST; buffer, salt, pH and temperature not stated; high values mean tight binding; most listed sequences are background and not binding sites; double strand, one strand shown.

Sequence | binding signal [E-score]
ACGTTCAT | -0.166
GCTCTCCC | -0.0111
ATGTCACA | -0.0732
AATAATGT | -0.032
CTAAAATC | -0.236
TTCGCCAA | -0.121
GCGTTGCC | -0.19
GATTGCGA | 0.0564
CGGGGGAG | -0.00346
CATAGCAC | -0.0868
ACTATAAC | -0.124
TATTACCA | 0.166
GATTTGAC | 0.0319
AGTGGGCA | -0.182
CAAAGCCA | -0.269
GCTGAACA | -0.228
CCATGGTC | -0.0922
CTGAGGCA | -0.107
CATTCGAG | 0.0507
CTATCAAG | 0.155
ATCTTACG | -0.113
ATTTCGCA | -0.228
CATGTCAG | -0.0821
CAGTATGG | -0.0299
CAAAAAAG | -0.251

Sequence | binding signal [E-score]
TATTGCCA | 0.049
ATAACTTG | -0.0106
CCGACCTC | -0.0749
CGAAATTA | -0.235
CGAAGTGC | -0.293
AGAATACG | 0.218
CCTGCAAA | -0.0191
CGTAACTC | -0.196
CCGGTCTC | 0.0914
AAGAATAT | 0.0119
AAATCCAT | 0.121
GGTCGCAA | -0.0785
GTAGAGTA | 0.181
CTTGCAAG | -0.0752
ATTCTCCA | 0.0475
ATATTCGG | 0.108
GCCGACCA | 0.0371
ATGACTCG | -0.0829
ATCTCCTC | 0.284
GGTGCCGA | -0.111
ACATGGAC | -0.206
AACTGTCC | -0.216
AGAGCCTA | -0.163
ACAACACT | -0.0613
GCCGGATA | 0.409

Sequence | binding signal [E-score]
ACACGGGC | 0.179
GCCTGCGA | -0.197
GGGCGGCA | -0.0398
GGGCATTA | -0.0938
CGCCCAAA | -0.209
CGAGGCAG | -0.118
CCCTAGGA | 0.0629
GGCTATAC | 0.235
GTAAATAC | 0.0624
GATCTTCC | 0.246
AGAGTGTC | 0.0489
GGTTTGTA | 0.123
CACTCCTG | 0.0641
ATTCATTG | -0.0748
GCGAAACA | -0.262
AGCCAGGA | 0.0776
CTTTCACA | -0.0977
CTATCCTA | 0.198
GTGATTAA | 0.0568
GACCGTCA | -0.228
CTATGATC | 0.302
AACGGATG | 0.0176
AAAGGTGA | 0.0271
CATAACGA | -0.0576
AATTCCCG | -0.0766

Sequence | binding signal [E-score]
AGTCGGGG | 0.099
CAAACATG | -0.084
AACCAGTC | -0.113
ACCTCAGC | -0.104
AGCATAGC | -0.00155
ACACTGAT | 0.218
ACCTGGAG | -0.0255
ATGCCCCC | -0.0992
CATACTGA | 0.0287
ACCAAGGA | -0.00147
CGTATGCC | -0.013
GAAGTATA | 0.261
AGCTGTTG | -0.132
GACTACTA | -0.018
CCGACTCC | -0.084
AAAGTGTA | 0.0648
ACGCTACG | -0.0976
CCGTCTTA | 0.0906
ACCGTATC | 0.449
ATATTCTA | 0.176
CTACCGGA | 0.0622
ATGGATGG | -0.0199
GGATGACC | 0.205
ACCGCACG | -0.0634
TTACTCAA | 0.0325

Sequence | binding signal [E-score]
CTTGAATC | 0.0498
GACACTCC | 0.258
CCACCCAG | -0.111
GATGAGCA | 0.088
GGTTATAC | 0.261
AAACGATG | -0.105
ATTTTCCA | 0.0926
TCGAGTCA | -0.222
ACACCCCC | 0.386
CTCGAGAA | -0.166
GTCCTGAA | -0.0169
AACTGGAG | -0.0514
ACATTTGG | -0.0921
CTGCTCCA | -0.116
CAATTGTG | 0.057
ACAGTCCT | -0.219
ACGGGACA | -0.0599
CTCGGTCC | -0.0609
GTGAAAAA | -0.145
ACGTTATG | -0.0556
ATACGCTG | 0.268
GAACTCAA | -0.0511
AAGGAGTG | -0.0576
CGTTGGAC | -0.113
ACGCCCCT | 0.0924

Sequence | binding signal [E-score]
GACCAATC | -0.257
CGGCGCCA | -0.157
ATCCACAT | 0.166
ATATCGAG | 0.335
AGCGGCAC | -0.144
CGAGTAGA | 0.0988
GCAGCAGC | -0.134
GAGGTACC | -0.063
GGGGCACA | 0.075
AAGGGTAC | -0.063
CCAGTGCG | -0.2
CCAACGGA | -0.0619
ACCTAGTA | -0.0718
GTGTCCTA | 0.103
GAGCGTGC | -0.02
AGAGCGTA | -0.0387
CGCAGCGA | -0.0944
ATTGGCAG | -0.273
AAAAACTA | -0.0973
ATTCTGGA | 0.0667
CTCATGAA | -0.0117
ACTCATAT | 0.25
CGTAATTC | -0.115
ATGGGCCG | -0.0134
AGCGACTC | -0.286

Sequence | binding signal [E-score]
AATCGTGT | 0.0324
ACAATGGT | -0.187
TGCAGTAA | -0.109
GTGGGGCA | 0.00297
ACACTGAG | 0.114
ACCCGAGA | 0.213
TACGAGAA | -0.0247
GCTGGTAA | -0.173
ATAGCCCC | 0.181
GTCGTTCA | -0.227
AATGCTGG | -0.0758
GCCTCACC | -0.312
AGTATACC | 0.389
AAACATGC | -0.14
CCTTAACC | -0.258
AATGTAGT | -0.146
AGCTCGTG | 0.102
AGCATCGA | -0.119
GCTTAGAC | -0.0677
ACCCCAAG | -0.0676
AATAGTGC | -0.139
ACATCGCG | -0.119

Reference: publication PMC10668032
